Measurements as given in paper PMC4336329 (PLoS ONE, 2015).
Out of some 310,000 compounds screened, about 2,200 (0.71%) showed an effect of 50% or more. Effects have a minus sign here. This is one part of the list.

biological target: human ether-à-go-go-related gene (hERG) potassium channel (human, UniProt Q12809); assay: primary screen, population patch clamp on CHO cells stably expressing hERG
Sequence (Q12809 whole entry, looked up): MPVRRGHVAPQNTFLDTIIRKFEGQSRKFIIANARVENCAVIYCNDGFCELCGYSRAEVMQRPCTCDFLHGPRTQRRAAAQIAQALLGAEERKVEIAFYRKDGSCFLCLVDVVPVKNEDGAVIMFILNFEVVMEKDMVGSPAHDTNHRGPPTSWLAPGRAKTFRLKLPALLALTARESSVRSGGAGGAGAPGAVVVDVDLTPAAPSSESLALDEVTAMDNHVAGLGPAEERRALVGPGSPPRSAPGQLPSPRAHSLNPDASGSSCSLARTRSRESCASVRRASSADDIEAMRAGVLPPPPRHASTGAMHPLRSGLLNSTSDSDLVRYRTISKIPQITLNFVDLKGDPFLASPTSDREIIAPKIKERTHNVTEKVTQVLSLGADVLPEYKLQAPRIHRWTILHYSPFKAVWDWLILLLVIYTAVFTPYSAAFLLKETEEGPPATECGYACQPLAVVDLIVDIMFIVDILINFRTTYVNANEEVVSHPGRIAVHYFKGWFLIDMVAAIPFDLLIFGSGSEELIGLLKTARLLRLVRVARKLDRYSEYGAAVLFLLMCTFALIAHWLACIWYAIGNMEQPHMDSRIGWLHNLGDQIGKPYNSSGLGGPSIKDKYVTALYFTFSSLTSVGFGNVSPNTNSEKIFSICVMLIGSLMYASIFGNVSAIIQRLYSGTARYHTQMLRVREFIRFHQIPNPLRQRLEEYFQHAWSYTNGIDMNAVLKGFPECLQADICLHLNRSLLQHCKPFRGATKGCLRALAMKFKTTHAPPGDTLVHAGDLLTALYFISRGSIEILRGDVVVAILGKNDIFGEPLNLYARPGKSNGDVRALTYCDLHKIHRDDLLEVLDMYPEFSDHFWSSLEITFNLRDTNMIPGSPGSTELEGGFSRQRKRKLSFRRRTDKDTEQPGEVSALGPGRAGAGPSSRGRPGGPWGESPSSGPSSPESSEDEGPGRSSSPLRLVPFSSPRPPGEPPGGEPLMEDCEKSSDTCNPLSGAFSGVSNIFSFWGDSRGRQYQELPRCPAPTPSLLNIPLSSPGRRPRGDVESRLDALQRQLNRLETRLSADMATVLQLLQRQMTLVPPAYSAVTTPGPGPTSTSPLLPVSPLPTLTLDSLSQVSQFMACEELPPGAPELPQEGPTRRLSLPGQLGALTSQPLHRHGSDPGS

Compound | hERG current change (%, negative = inhibition) at 1uM [%]
O=C(O)CCCCCNC(=O)OCC1c2ccccc2-c2ccccc21 | 9.82
Cc1cc(C)c2[nH]c(O)c(N=NC3=NC(=O)CS3)c2c1 | -4.49
COCCN(C(=O)COC(=O)c1cccnc1SC)c1c(N)n(Cc2ccccc2)c(=O)[nH]c1=O | 7.78
Cc1ccc(-c2nc3ccccc3s2)cc1S(=O)(=O)N1CCOCC1 | -3.04
CCOC(=O)c1c(/N=C/c2cc(C)ccc2O)sc2c1CCC2 | 5.31
CCCCNC(=O)CN(c1cc(C(F)(F)F)ccc1Cl)S(C)(=O)=O | -0.983
O=C(NNc1cccc([N+](=O)[O-])c1)/C(=C\c1cccnc1)NC(=O)c1ccccc1 | 4.41
C=CCn1c(-c2cccn(Cc3ccc(Cl)cc3Cl)c2=O)n[nH]c1=S | 9.51
O=C(O)C1C2CCC(C2)C1C(=O)NCc1ccccn1 (stereo not drawn) | 11.7
CSc1nc(N2CCOCC2)c2c(c1C#N)CC(C)(C)OC2 | 4.36
COC(=O)c1ccccc1NC(=O)CNc1cc(Cl)ccc1N1CCOCC1 | -0.671
C/C(=N\NC(=S)NC(C)C)c1ccc(-n2ccnc2)cc1 | 6.8
CC1(C(=O)O)CCC(C(=O)Nc2ccc3ccccc3c2)C1(C)C (stereo not drawn) | 5.71
CC1(C)c2[nH]c3ccccc3c2C[C@@H]2C(=O)N(c3ccc(F)cc3F)C(=O)N21 | 13.1
COC(=O)/C(C#N)=C/c1c(Oc2cc(C)cc(C)c2)nc2ccccn2c1=O | 7.87
CCOc1ccc(NS(=O)(=O)c2ccc(NC(=S)NC(=O)C(C)C)cc2)cc1 | 13.8
COc1ccccc1N1C(=O)C=C(Sc2nc(C)cc(C)n2)C1=O | 13
Cc1ccc(OCc2nnc(SCc3ccc(C#N)cc3)n2-c2ccc(C)cc2)cc1 | -4.05
Cc1ccnc(-n2c(C)cc(C=O)c2C)c1 | 12.2
CCCCCCC(C)OC(=O)Nc1cccc2ccccc12 (stereo not drawn) | 13.9
O=C(CC(=O)c1cccc([N+](=O)[O-])c1)Nc1ccccc1Cl | -3.62
COc1cc(NS(=O)(=O)c2ccc(NC(=O)Cc3ccccc3)cc2)nc(OC)n1 | 11.6
Cc1ccc(-n2nc(CC#N)c(C#N)c2N)cc1Cl | 0.858
COc1cc(C)c(CN2CCC(n3nccc3NC(=O)C3CC3)CC2)cc1C | -30.3
